# Source: PubChem BioAssay (Tox21)
# Where “and” joins values, the source holds several entries; their conditions need not be identical. Equal entries are not always repeated. Inconclusive means that the source gave no clear call. Such entries were picked first, then a sample of the others. For some assays here: Where the call is inconclusive, the potency comes from a doubtful curve fit. Calls of active or inactive are those of the source. Unless noted, calls come from the whole dose curve; as a rule, active = well fitted curve in the direction sought with a large enough effect in the repeat runs; inconclusive = weak or mixed curves; inactive = no such curve, though single readings can be large; an effect the other way counts as inactive or inconclusive.
# Legend:
# [1] = qHTS assay to identify small molecule antagonists of the androgen receptor (AR) signaling pathway - cell viability counter screen (AID 743033; note: nearly all actives have a fitted effect of over 45% in size; note: potency is the fitted concentration of half-maximal effect; for activity change, negative = cytotoxicity: % is set by controls: 0 for no effect and ±100 for the full control effect); details: AR-bla HEK293 viability, CellTiter-Glo luminescence, 16 h; activity change, negative = cytotoxicity: at 58.5 µM (top of the series) unless noted
# [2] = qHTS assay to identify small molecule antagonists of the estrogen receptor alpha (ER-alpha) signaling pathway - cell viability counter screen (AID 743074; calls by dose curve;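 note: HEK293 cells carrying ER-alpha-UAS-bla reporter stimulated with 17beta-estradiol; potency is the fitted concentration of half-maximal effect; nearly all actives have a fitted effect of over 45% in size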)
# [3] = qHTS assay to identify aromatase inhibitors - cell viability counter screen (AID 743084); details: MCF-7 aro ERE viability, CellTiter-Fluor, 24 h; activity change, negative = cytotoxicity: at 70.3 µM (top of the series) unless noted;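 note: cells stimulated with testosterone during compound exposure; nearly all actives have a fitted effect of over 55% in size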; note: potency is the fitted concentration of half-maximal effect; for activity change, negative = cytotoxicity: % is set by controls: 0 for no effect and ±100 for the full control effect
# [4] = molecular target: Androgen receptor (Homo sapiens) (UniProt P10275); assay: qHTS assay to identify small molecule antagonists of the androgen receptor (AR) signaling pathway (AID 743035; active = well fitted inhibition curve with a large enough effect in the signal ratio in the repeat runs, not every such curve was filed as active; inconclusive = weak or mixed curves, or effect the other way; inactive = no such curve, though single readings can be large or run the other way; the % refers to the signal ratio; note: potency is the fitted concentration of half-maximal effect; for activity change, negative = inhibition: % is set by controls: 0 for no effect and ±100 for the full control effect); details: HEK293 AR-UAS-bla, R1881-stimulated, beta-lactamase FRET, 16 h; activity change, negative = inhibition: at 58.5 µM (top of the series) unless noted
# In short: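 Beta-lactamase FRET read (2 h RT incubation with LiveBLAzer B/G) following 16 h of compound plus R1881 treatment of AR-UAS-bla HEK293 cells, which had been pre-incubated 4 h at 37C.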
# [5] = molecular target: Aryl hydrocarbon receptor (Homo sapiens) (UniProt P35869); assay: qHTS assay to identify small molecule that activate the aryl hydrocarbon receptor (AhR) signaling pathway (AID 743085); note: potency is the fitted concentration of half-maximal effect; nearly all actives have a fitted effect of over 15% in size
# In short: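 A multiplexed format paired cell viability (CellTiter-Fluor fluorescence) with AhR-dependent luciferase output (ONE-Glo luminescence) in the same wells of HepG2 DRE-luc cells after 24 h compound exposure at 37C.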
# [6] = molecular target: Androgen receptor (Homo sapiens) (UniProt P10275); assay: qHTS assay to identify small molecule agonists of the androgen receptor (AR) signaling pathway (AID 743036; active = well fitted activation curve with a large enough effect in the signal ratio in the repeat runs, with a control signal flat, not every such curve was filed as active; inconclusive = weak or mixed curves, or effect the other way; inactive = no such curve, though single readings can be large or run the other way; the % refers to the signal ratio; note: potency is the fitted concentration of half-maximal effect); details: HEK293 AR-UAS-bla GripTite, beta-lactamase FRET ratio, 16 h; activation: at 62.4 µM (top of the series) unless noted
# In short: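 Screening used 2,000 AR-bla HEK293 cells per well, treated 16 h at 37C with test compounds in DMSO alongside positive and DMSO-only controls; beta-lactamase activity was then read by LiveBLAzer B/G FRET fluorescence after 2 h at room temperature.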
# [7] = qHTS assay to identify small molecule antagonists of the thyroid receptor (TR) signaling pathway (AID 743065); note: potency is the fitted concentration of half-maximal effect; nearly all actives have a fitted effect of over 55% in size
# In short: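 GH3.TRE-Luc rat pituitary cells carrying two TR response elements driving luciferase were plated for 4 h, given compound plus 1 nM T3 (final), and incubated 23.5 h at 37 C. ONE-Glo luminescence measured reporter inhibition; CellTiter-Fluor fluorescence tracked cytotoxicity.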
# [8] = qHTS assay to identify small molecule antagonists of the estrogen receptor alpha (ER-alpha) signaling pathway using the BG1 cell line - cell viability counter screen (AID 743081); details: BG1Luc4E2 viability, CellTiter-Fluor, 22 h; activity change, negative = cytotoxicity: at 70.3 µM (top of the series);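 note: compound given together with 17beta-estradiol as the ER stimulus; potency is the fitted concentration of half-maximal effect; nearly all actives have a fitted effect of over 45% in size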
# [9] = qHTS assay to identify small molecule that activate the aryl hydrocarbon receptor (AhR) signaling pathway - cell viability counter screen (AID 743086);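 note: HepG2 liver cells carrying the AhR DRE luciferase reporter; % is set by controls: 0 for no effect and ±100 for the full control effect; nearly all actives have a fitted effect of over 45% in size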
# In short: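 HepG2-AhR-luc (HG2L7.5c1) cells, 4000/well, were preincubated 5 h at 37C, exposed to compound in qHTS format for 24 hr at 37C, then given CellTiter-Fluor for 30 min; viability was read as fluorescence in the reporter wells.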
# Tags give direction and shape of the fitted curve or compound fluorescence and quenching.
# UniProt P35869, sequence (P35869 whole entry, looked up): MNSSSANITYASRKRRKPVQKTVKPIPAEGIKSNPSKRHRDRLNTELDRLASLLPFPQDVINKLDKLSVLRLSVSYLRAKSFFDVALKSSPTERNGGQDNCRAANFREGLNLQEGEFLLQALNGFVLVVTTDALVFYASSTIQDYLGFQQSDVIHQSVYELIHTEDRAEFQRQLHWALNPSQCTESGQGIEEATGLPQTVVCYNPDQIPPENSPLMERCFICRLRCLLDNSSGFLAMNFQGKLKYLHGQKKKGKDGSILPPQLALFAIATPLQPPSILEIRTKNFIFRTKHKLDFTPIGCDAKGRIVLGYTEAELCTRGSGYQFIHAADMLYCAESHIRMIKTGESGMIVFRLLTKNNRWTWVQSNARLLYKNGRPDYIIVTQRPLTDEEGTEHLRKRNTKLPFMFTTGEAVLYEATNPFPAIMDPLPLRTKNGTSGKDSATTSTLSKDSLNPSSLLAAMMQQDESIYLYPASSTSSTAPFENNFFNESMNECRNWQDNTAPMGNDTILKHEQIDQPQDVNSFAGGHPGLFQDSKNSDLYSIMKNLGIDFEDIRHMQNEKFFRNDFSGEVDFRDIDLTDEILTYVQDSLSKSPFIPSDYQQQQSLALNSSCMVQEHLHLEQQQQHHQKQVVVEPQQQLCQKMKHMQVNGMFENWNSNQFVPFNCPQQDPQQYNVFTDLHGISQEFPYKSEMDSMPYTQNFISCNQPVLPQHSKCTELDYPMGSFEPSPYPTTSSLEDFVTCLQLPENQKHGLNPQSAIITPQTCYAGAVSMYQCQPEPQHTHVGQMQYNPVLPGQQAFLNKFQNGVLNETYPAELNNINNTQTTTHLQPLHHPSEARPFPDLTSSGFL
# UniProt P10275, sequence (P10275 whole entry, looked up): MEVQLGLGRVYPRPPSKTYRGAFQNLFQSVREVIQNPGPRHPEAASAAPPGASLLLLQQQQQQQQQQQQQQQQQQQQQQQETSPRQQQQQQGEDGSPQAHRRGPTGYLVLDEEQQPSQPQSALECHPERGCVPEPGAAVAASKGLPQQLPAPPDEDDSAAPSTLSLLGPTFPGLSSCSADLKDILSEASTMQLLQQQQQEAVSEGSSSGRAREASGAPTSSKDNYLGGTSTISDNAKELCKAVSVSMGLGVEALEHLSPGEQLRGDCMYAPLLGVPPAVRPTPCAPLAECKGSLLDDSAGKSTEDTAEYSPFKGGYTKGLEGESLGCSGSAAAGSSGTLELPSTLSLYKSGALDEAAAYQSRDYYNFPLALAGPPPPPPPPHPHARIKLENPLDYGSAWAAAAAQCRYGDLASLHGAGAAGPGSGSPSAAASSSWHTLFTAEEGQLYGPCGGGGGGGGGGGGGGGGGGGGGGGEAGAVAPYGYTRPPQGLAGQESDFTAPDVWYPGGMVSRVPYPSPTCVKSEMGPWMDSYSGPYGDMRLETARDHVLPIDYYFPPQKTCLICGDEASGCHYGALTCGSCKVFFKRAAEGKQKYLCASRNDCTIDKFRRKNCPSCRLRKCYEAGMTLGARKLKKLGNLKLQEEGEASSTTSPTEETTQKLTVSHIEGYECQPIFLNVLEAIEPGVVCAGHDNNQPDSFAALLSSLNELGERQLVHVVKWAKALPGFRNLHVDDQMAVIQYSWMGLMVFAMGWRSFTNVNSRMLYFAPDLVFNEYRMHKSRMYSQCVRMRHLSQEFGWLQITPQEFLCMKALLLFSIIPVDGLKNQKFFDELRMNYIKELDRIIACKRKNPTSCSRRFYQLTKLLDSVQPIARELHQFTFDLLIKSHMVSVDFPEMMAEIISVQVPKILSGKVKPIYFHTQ
smiles,measurement,setting,value
O=NN1CCCC1,Potency,[1],"inconclusive: 22.9 µM [cytotoxic, partial curve, poor fit]"
same,Potency,[2],"inconclusive: 12.3 µM [rising, partial curve, poor fit]"
same,Potency,[3],inactive
CN(C)[C@@H]1C(=O)C(C(N)=O)=C(O)[C@@]2(O)C(=O)C3=C(O)c4c(O)cccc4[C@@](C)(O)[C@H]3[C@H](O)[C@@H]12,Potency,[1],inactive
same,Potency,[3],"inconclusive: 76.3 µM [cytotoxic, partial curve, poor fit] and inconclusive: 34.4 µM [cytotoxic, partial curve, poor fit]"
CN(C)C(=O)Oc1cc(OC(=O)N(C)C)cc(C(O)CNC(C)(C)C)c1 (configuration not stated),Potency,[4],inactive
Oc1ccc(Cl)c(Cl)c1Cl,Potency,[1],"inconclusive: 57 µM [cytotoxic, single point]"
same,Potency,[5],"inconclusive: 2.52 µM [activator, single point]"
O=C(O)CCCOc1ccc(Cl)cc1Cl,Potency,[4],"inconclusive: 14.1 µM [rising, full curve]"
same,"activity change, negative = inhibition",[4],inconclusive: 10.1%
same,Potency,[6],"inconclusive: 21.9 µM [fluorescent, partial curve] and inconclusive: 8.87 µM [fluorescent]"
same,Potency,[7],inconclusive: 61.1 µM [inhibitor]
same,Potency,[2],"inconclusive: 21.9 µM [rising, single point]"
same,Potency,[8],inconclusive: 27.3 µM
same,Potency,[3],"inconclusive: 27.3 µM [rising, partial curve, poor fit] and inconclusive: 17.5 µM [rising, partial curve, poor fit]"
same,Potency,[5],inconclusive: 77 µM [activator] and inconclusive: 65.3 µM [activator]
same,Potency,[9],inactive
